Results reported in PMC8913617.
Results are given in words; binding and its absence hold for the method and conditions named. In cells and extracts the contact can be indirect. Some results given as binding are weak or reduced against the parent protein; the word gives no strength. For some of these results: Sequences can lack the tags named with a protein. One block for each molecule: values may come before it.

The chains behind the UniProt entries cited, without tags or fusion partners. Residues count along the entry.
UniProt P11881: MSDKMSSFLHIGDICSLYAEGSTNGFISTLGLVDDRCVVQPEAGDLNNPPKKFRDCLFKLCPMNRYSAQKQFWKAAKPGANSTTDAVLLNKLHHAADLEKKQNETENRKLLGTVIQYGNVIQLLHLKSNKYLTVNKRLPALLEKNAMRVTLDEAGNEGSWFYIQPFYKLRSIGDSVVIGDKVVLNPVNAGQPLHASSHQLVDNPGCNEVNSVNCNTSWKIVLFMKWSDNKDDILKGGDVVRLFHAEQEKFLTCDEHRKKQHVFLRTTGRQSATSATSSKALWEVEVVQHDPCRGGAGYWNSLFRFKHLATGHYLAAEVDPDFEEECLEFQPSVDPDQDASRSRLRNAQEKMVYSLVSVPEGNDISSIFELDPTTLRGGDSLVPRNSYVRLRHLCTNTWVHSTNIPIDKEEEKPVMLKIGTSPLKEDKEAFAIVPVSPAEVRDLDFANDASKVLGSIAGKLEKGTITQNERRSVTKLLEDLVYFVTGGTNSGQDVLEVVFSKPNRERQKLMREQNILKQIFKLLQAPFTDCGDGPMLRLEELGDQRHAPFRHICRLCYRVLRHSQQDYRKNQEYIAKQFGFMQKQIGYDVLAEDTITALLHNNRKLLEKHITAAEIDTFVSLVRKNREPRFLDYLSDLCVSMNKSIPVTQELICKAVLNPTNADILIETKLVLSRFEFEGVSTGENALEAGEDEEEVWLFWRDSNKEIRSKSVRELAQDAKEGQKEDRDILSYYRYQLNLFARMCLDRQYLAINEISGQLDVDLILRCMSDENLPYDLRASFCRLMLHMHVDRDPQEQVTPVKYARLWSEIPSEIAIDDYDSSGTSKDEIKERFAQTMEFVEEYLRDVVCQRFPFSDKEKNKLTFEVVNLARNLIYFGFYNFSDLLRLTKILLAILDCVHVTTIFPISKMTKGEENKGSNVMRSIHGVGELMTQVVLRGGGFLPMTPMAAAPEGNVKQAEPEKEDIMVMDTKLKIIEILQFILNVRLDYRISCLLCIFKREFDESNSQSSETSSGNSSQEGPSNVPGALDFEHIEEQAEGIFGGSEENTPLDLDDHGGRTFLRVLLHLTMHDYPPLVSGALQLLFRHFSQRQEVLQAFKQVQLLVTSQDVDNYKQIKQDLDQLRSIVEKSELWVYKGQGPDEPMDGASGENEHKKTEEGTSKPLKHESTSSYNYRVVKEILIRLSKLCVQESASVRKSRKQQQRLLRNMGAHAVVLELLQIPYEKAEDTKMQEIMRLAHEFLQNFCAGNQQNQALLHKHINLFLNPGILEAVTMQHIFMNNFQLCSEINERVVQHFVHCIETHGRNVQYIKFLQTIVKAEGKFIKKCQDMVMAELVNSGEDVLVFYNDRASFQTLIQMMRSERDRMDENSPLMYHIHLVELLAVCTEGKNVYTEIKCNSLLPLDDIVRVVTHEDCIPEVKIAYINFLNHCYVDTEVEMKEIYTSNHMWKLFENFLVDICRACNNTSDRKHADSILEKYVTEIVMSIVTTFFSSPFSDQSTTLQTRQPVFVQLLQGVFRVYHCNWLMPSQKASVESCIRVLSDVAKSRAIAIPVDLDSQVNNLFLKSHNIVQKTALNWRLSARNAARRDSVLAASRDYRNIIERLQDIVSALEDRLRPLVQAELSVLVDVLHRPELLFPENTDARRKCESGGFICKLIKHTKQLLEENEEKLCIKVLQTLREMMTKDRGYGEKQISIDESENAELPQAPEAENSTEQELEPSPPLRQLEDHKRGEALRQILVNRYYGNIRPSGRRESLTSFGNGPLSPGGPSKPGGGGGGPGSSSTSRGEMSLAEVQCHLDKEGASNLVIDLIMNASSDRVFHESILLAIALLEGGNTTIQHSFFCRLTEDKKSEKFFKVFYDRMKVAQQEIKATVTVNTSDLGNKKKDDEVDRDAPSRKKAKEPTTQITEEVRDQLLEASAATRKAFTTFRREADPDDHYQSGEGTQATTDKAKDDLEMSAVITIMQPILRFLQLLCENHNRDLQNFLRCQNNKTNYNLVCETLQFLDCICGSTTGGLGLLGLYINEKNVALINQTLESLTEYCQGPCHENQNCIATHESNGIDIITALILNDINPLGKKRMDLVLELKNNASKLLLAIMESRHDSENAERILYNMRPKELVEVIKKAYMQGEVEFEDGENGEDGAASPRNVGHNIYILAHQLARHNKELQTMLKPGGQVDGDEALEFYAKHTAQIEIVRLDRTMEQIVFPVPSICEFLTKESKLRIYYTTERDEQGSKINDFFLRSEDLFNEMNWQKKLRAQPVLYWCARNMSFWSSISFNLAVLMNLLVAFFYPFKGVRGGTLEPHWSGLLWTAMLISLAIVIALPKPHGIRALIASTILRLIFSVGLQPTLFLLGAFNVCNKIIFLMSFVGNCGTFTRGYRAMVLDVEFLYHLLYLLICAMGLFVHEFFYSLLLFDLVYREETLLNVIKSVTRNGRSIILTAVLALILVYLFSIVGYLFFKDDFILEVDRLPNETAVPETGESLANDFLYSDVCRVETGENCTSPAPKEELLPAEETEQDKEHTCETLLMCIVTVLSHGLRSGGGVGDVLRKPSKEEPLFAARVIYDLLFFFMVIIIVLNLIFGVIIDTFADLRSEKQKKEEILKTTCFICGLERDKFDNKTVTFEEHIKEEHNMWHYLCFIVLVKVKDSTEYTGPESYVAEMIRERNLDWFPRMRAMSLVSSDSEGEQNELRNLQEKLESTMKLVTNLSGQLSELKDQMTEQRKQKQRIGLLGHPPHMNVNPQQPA
UniProt P70227: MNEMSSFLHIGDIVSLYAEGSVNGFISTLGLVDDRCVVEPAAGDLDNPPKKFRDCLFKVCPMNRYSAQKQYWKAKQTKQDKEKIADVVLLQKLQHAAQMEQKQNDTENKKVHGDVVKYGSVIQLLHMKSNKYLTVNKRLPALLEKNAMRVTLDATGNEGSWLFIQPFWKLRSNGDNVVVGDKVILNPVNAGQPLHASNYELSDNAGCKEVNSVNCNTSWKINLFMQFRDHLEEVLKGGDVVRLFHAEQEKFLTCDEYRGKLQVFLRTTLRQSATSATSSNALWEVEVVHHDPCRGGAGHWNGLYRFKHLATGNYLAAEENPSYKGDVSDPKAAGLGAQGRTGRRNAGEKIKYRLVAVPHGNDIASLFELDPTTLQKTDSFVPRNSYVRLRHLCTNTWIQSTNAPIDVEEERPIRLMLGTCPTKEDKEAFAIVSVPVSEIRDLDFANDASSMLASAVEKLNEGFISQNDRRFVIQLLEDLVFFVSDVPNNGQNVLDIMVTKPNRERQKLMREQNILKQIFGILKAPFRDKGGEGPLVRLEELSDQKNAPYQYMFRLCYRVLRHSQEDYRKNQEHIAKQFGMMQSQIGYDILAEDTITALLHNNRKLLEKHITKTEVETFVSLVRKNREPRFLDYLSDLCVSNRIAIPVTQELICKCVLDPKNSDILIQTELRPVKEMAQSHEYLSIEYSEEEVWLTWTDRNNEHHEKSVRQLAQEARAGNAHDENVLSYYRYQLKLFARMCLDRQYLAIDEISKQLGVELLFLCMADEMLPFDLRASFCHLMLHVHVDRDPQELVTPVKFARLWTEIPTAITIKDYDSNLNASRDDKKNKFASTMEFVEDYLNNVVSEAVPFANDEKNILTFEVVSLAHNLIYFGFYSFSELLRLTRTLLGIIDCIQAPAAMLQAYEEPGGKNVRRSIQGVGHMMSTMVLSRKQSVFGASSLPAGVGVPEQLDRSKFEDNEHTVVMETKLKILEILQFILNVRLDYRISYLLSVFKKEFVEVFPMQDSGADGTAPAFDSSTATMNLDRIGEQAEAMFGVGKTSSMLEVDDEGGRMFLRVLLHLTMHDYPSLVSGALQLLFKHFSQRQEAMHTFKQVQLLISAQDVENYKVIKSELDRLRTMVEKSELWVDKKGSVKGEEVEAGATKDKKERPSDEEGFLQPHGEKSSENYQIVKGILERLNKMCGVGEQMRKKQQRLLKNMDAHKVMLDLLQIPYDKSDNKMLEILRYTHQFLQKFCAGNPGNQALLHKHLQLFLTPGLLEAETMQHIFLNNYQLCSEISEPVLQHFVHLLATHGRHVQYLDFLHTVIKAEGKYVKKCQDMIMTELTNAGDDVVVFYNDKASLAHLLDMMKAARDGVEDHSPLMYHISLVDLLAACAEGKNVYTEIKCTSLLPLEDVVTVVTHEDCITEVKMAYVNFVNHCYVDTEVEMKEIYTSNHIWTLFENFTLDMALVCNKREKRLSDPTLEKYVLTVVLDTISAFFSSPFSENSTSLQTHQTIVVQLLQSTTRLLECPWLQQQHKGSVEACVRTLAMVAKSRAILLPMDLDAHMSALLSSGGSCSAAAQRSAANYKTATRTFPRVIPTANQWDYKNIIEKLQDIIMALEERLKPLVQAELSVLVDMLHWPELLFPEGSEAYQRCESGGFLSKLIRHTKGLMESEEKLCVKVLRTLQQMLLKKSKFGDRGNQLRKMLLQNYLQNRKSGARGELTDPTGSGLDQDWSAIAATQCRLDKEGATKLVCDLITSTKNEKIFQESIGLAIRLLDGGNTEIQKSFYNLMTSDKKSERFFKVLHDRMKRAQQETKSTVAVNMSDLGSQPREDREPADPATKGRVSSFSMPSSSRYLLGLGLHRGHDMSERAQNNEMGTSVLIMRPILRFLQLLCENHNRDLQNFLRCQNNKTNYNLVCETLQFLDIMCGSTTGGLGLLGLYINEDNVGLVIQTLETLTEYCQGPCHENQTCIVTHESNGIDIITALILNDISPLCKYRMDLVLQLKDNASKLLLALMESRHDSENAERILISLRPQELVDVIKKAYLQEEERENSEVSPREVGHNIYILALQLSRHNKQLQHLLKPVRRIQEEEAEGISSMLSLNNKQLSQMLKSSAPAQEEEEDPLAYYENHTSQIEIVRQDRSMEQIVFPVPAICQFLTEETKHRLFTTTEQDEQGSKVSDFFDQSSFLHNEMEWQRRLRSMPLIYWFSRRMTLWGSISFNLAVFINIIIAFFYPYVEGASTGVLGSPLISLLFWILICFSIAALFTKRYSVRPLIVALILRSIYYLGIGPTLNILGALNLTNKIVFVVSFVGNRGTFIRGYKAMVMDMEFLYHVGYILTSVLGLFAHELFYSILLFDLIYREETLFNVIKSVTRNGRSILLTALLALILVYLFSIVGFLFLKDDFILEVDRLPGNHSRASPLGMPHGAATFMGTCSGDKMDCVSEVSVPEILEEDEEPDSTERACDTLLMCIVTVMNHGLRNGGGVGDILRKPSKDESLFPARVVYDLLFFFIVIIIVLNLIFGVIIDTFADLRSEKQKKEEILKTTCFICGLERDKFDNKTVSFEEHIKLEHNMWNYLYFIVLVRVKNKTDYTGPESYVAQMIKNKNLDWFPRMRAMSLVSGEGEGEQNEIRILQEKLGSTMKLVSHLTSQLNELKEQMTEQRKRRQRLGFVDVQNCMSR
UniProt P70302, residues 23-685: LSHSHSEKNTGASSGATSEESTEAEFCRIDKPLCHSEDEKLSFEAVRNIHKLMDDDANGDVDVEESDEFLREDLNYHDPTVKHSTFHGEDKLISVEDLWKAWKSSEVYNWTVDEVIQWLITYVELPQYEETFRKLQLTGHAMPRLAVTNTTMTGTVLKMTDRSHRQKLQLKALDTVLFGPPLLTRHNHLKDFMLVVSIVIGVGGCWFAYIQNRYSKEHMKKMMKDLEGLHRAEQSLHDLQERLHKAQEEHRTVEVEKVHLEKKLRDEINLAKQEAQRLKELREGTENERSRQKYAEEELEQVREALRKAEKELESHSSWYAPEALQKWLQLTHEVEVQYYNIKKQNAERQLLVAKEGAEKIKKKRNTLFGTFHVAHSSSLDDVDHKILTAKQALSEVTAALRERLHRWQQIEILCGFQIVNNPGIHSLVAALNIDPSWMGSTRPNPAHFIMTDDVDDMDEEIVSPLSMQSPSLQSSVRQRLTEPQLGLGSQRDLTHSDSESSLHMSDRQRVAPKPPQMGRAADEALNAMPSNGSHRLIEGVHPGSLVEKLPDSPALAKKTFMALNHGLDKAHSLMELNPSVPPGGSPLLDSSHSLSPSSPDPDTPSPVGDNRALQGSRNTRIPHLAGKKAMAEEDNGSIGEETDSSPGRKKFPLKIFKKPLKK

Experiments:
[1] = target: T1, iRhom2-HA (wild type, transiently expressed in HEK293T cells) (mouse (from the plasmid name pM6P.Blast-miR2)) (UniProt Q80WQ6); test: co-IP; HEK293T transiently co-transfected with two tagged proteins for 36-48 h; lysis in 1% Triton X-100, 200 mM NaCl, 50 mM Tris-HCl pH 7.4; anti-HA or anti-FLAG M2 magnetic beads, 4 °C overnight; washes with 500 mM NaCl; immunoblot; in Fig. 4f with tunicamycin (2 µg/ml) for the last 18 h
T1 sequence: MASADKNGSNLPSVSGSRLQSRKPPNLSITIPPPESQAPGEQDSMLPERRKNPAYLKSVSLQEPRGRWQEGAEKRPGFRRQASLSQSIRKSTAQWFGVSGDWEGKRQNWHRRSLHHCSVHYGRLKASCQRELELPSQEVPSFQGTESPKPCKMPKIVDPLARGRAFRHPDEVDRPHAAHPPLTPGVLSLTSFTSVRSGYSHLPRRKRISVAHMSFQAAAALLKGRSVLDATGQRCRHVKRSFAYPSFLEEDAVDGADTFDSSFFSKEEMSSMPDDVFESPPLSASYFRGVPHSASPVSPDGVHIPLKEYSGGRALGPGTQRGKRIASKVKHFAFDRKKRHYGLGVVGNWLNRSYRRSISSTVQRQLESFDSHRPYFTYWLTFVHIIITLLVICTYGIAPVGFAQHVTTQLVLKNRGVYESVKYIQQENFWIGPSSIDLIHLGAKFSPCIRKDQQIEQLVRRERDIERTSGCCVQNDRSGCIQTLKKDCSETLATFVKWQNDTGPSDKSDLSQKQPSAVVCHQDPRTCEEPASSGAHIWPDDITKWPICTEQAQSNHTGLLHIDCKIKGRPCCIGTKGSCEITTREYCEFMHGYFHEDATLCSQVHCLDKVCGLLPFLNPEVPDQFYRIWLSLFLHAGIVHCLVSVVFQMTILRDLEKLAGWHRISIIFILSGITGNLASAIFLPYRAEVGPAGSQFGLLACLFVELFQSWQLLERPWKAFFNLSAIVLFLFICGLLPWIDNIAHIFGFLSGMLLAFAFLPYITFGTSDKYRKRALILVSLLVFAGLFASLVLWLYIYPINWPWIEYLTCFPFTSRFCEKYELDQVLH

[2] = target: T2, iRhom2-3XHA stably expressed in iRhom1/2 DKO MEFs (mouse (from the plasmid name pM6P.Blast-miR2)) (UniProt Q80WQ6); test: co-IP; iRhom1/2 DKO MEFs stably expressing HA-tagged iRhom2 forms; endogenous partners; lysis in 1% Triton X-100, 200 mM NaCl, 50 mM Tris-HCl pH 7.4; anti-HA magnetic beads, 4 °C overnight; washes with 500 mM NaCl; immunoblot; in Fig. 6b after 18 h with control or BIRD-2 peptides (10 or 20 µM)
T2 sequence: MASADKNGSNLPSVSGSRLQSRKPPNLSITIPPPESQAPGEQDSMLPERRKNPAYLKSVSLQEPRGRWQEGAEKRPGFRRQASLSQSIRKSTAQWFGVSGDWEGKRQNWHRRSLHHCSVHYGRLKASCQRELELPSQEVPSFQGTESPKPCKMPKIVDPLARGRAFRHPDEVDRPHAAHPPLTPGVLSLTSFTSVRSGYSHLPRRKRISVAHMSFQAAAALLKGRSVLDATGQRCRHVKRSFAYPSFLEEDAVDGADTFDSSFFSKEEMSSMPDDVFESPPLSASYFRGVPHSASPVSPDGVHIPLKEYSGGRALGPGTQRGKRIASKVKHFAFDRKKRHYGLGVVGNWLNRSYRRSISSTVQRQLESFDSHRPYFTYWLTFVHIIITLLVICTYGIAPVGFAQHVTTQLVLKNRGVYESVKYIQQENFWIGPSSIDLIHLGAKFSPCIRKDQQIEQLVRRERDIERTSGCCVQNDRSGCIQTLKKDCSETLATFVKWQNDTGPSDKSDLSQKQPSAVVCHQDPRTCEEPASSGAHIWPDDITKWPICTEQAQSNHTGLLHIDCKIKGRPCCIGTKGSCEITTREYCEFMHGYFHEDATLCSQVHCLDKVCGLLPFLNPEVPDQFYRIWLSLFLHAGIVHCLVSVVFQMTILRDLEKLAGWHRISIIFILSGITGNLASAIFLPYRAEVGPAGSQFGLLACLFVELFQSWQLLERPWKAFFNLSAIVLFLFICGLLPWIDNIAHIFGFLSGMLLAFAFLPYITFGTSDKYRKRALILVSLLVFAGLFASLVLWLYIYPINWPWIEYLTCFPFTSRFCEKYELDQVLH

[3] = target: IP3R3 (tagged, co-IP of Supplementary Fig. 4a) (UniProt Q63269); test: co-IP; cells expressing tagged iRhom and IP3R3 (Supplementary Fig. 4a); cells and tags not shown
FLAG-IP3R1 = FLAG-IP3R1 (UniProt P11881); test: co-IP; HEK293T transiently co-transfected with two tagged proteins for 36-48 h; lysis in 1% Triton X-100, 200 mM NaCl, 50 mM Tris-HCl pH 7.4; anti-HA or anti-FLAG M2 magnetic beads, 4 °C overnight; washes with 500 mM NaCl; immunoblot; in Fig. 4f with tunicamycin (2 µg/ml) for the last 18 h

Molecule: FLAG-IP3R1 (from UniProt P11881 1-2749) (receptor)
binding [1]: binds

Molecule: GFP-IP3R1 (from UniProt P29994 1-2750) (receptor)
binding [1]: binds

Molecule: endogenous BCL-XL of MEFs (from UniProt Q64373-1 1-233)
binding [2]: no binding

The next lines start with the values.

binding [2]: binds
Molecule: endogenous IP3R3 of MEFs (from UniProt P70227 1-2670) (receptor)

binding [2]: no binding
Molecule: endogenous STIM1 of MEFs (from UniProt P70302 23-685)

binding [3]: binds
B1: iRhom1 (tagged, co-IP of Supplementary Fig. 4a) (protein, UniProt Q6PIX5 1-856)
chain: MSEARRDSTSSLQRKKPPWLKLDIPAAVPPAAEEPSFLQPLRRQAFLRSVSMPAETARVPSPHHEPRRLVLQRQTSITQTIRRGTADWFGVSKDSDSTQKWQRKSIRHCSQRYGKLKPQVIRELDLPSQDNVSLTSTETPPPLYVGPCQLGMQKIIDPLARGRAFRMADDTADGLSAPHTPVTPGAASLCSFSSSRSGFNRLPRRRKRESVAKMSFRAAAALVKGRSIRDGTLRRGQRRSFTPASFLEEDMVDFPDELDTSFFAREGVLHEEMSTYPDEVFESPSEAALKDWEKAPDQADLTGGALDRSELERSHLMLPLERGWRKQKEGGPLAPQPKVRLRQEVVSAAGPRRGQRIAVPVRKLFAREKRPYGLGMVGRLTNRTYRKRIDSYVKRQIEDMDDHRPFFTYWLTFVHSLVTILAVCIYGIAPVGFSQHETVDSVLRKRGVYENVKYVQQENFWIGPSSEALIHLGAKFSPCMRQDPQVHSFILAAREREKHSACCVRNDRSGCVQTSKEECSSTLAVWVKWPVHPSAPDLAGNKRQFGSVCHQDPRVCDEPSSEDPHEWPEDITKWPICTKSSAGNHTNHPHMDCVITGRPCCIGTKGRCEITSREYCDFMRGYFHEEATLCSQVHCMDDVCGLLPFLNPEVPDQFYRLWLSLFLHAGILHCLVSVCFQMTVLRDLEKLAGWHRIAIIYLLSGITGNLASAIFLPYRAEVGPAGSQFGILACLFVELFQSWQILARPWRAFFKLLAVVLFLFAFGLLPWIDNFAHISGFVSGLFLSFAFLPYISFGKFDLYRKRCQIIIFQVVFLGLLAGLVVLFYFYPVRCEWCEFLTCIPFTDKFCEKYELDAQLH

binding (FLAG-IP3R1): binds
B2: iRhom2-HA (wild type, transiently expressed in HEK293T cells) (protein, UniProt Q80WQ6 1-827)
chain: MASADKNGSNLPSVSGSRLQSRKPPNLSITIPPPESQAPGEQDSMLPERRKNPAYLKSVSLQEPRGRWQEGAEKRPGFRRQASLSQSIRKSTAQWFGVSGDWEGKRQNWHRRSLHHCSVHYGRLKASCQRELELPSQEVPSFQGTESPKPCKMPKIVDPLARGRAFRHPDEVDRPHAAHPPLTPGVLSLTSFTSVRSGYSHLPRRKRISVAHMSFQAAAALLKGRSVLDATGQRCRHVKRSFAYPSFLEEDAVDGADTFDSSFFSKEEMSSMPDDVFESPPLSASYFRGVPHSASPVSPDGVHIPLKEYSGGRALGPGTQRGKRIASKVKHFAFDRKKRHYGLGVVGNWLNRSYRRSISSTVQRQLESFDSHRPYFTYWLTFVHIIITLLVICTYGIAPVGFAQHVTTQLVLKNRGVYESVKYIQQENFWIGPSSIDLIHLGAKFSPCIRKDQQIEQLVRRERDIERTSGCCVQNDRSGCIQTLKKDCSETLATFVKWQNDTGPSDKSDLSQKQPSAVVCHQDPRTCEEPASSGAHIWPDDITKWPICTEQAQSNHTGLLHIDCKIKGRPCCIGTKGSCEITTREYCEFMHGYFHEDATLCSQVHCLDKVCGLLPFLNPEVPDQFYRIWLSLFLHAGIVHCLVSVVFQMTILRDLEKLAGWHRISIIFILSGITGNLASAIFLPYRAEVGPAGSQFGLLACLFVELFQSWQLLERPWKAFFNLSAIVLFLFICGLLPWIDNIAHIFGFLSGMLLAFAFLPYITFGTSDKYRKRALILVSLLVFAGLFASLVLWLYIYPINWPWIEYLTCFPFTSRFCEKYELDQVLH
